# Laboratory results published in the supplement of paper PMC3334620.
# In all, about 33,000 sequences were measured (“E-score (-0.5 to 0.5)”: median about -0.054, highest 2% from about 0.35 on). The list shows a part of the results.
# Biological target: T1, Stb5 (UniProt P38699)
# T1 sequence: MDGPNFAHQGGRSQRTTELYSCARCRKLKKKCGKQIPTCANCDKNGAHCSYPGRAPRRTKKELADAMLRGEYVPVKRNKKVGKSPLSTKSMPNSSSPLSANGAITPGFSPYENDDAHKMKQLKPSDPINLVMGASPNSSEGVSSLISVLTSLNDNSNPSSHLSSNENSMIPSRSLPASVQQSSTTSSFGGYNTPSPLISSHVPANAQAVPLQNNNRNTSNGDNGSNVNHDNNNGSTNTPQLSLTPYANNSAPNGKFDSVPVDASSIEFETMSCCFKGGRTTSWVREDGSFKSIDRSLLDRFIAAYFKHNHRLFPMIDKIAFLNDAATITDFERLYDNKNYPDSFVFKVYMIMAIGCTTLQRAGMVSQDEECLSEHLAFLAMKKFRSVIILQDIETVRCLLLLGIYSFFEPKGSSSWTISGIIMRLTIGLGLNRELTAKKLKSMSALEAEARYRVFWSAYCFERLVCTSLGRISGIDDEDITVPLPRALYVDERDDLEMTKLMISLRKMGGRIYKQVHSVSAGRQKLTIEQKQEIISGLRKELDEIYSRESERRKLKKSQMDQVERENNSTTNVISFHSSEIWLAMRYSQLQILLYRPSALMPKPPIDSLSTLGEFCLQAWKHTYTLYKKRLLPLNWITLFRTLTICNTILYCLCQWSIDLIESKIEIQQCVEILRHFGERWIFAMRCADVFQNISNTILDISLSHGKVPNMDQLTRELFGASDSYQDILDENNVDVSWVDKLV
# Assay: PBM E-score (8-mer binding enrichment) (E-score (-0.5 to 0.5)); higher = stronger / more preferred TF binding; most listed sequences are background and not binding sites
# Conditions: protein concentration: 200 nM; construct: GST-full length
# Procedure, shortened: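 Universal all-10-mer Agilent arrays, double-stranded by primer extension on fresh or once-stripped slides, were probed with about 100-200 nM GST-tagged yeast transcription factors made by PURExpress. Fluorescent anti-GST detected bound protein, and masliner normalised the scans. E-scores from the Universal PBM Analysis Suite were given to each ungapped eight-base word pooled with its reverse complement.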
row,Sequence,PBM E-score
1,AAAATATT,0.114
2,CCGGGAAA,0.194
3,AAAGCATG,-0.169
4,ATTATGCA,-0.0339
5,GGGAGGGA,-0.0136
6,GATTTGGA,-0.00562
7,CATAAATC,0.0872
8,GAGTAACA,0.0832
9,CGGAGAGA,0.241
10,CAGGATGG,-0.143
11,TAGCGATA,0.0393
12,AGGCGAAA,-0.239
13,AACCATGA,0.00068
14,CAGGTTAC,0.0846
15,ATCCAACG,-0.168
16,AATGCATT,-0.0561
17,AAGGAAAC,-0.0801
18,ACCCAGTG,-0.137
19,GACGGGAC,0.263
20,GAATCCAA,-0.0196
21,ACACACTA,-0.195
22,AAGCGAAC,-0.232
23,ATACGACC,0.0979
24,CGCGCTCA,-0.0421
25,CTATTTCA,0.069

row,Sequence,PBM E-score
1,CTGGGCTA,-0.0628
2,AAATCATA,-0.138
3,CGCCAGGA,-0.17
4,ACGAGCAG,-0.142
5,AGCGACGG,0.245
6,ACATTGGC,-0.26
7,ACCGTCGT,0.233
8,CATCTTCC,0.0811
9,CACCGGAC,0.413
10,GGGCGAAC,-0.158
11,CGGGCGAA,0.143
12,GTCGGTTA,0.182
13,ATGATGTC,0.00134
14,ACTGAAAT,-0.247
15,CCCTCAGG,-0.0337
16,AGTTACTG,0.0537
17,AGAAATGG,-0.143
18,CCTGGCTA,-0.283
19,CAGGAGTC,-0.149
20,CACAAGGC,-0.0126
21,TGAGCTCA,-0.125
22,AATGTCCG,0.438
23,AGACTGGA,-0.0927
24,CATCAACA,0.0855
25,CACATGTG,-0.0446

row,Sequence,PBM E-score
1,CACTAACG,0.0364
2,CCTTCCTC,-0.17
3,GACCTGCC,-0.0858
4,CGGTAAAA,0.32
5,GAATATTC,0.0673
6,GCGTGACC,-0.131
7,AAGCCCAA,-0.0712
8,CACAGAGA,-0.24
9,CAACCGGA,0.215
10,CAATCTAG,0.0021
11,AACGTGGC,-0.29
12,ACTCGGGA,0.116
13,CGATCCGC,0.266
14,AGTATTAC,0.0335
15,ATGTAGAA,-0.0382
16,CAATCAAG,-0.0529
17,CACAGTTA,-0.17
18,AAATCGCC,0.169
19,CGAAAAGA,0.0925
20,CGAATCGA,-0.0368
21,ACTAGGCG,0.112
22,TGCAAACA,-0.235
23,GTTGTAGA,-0.221
24,CGTTGCTC,0.00415
25,ATCCCGCG,0.309

row,Sequence,PBM E-score
1,CGTGTCTC,-0.06
2,AAGCAGAT,-0.139
3,ACGATACC,0.0185
4,CGTACACA,-0.209
5,TGCGATAA,-0.15
6,ATGTCACC,0.321
7,AAAAATTA,0.0434
8,CTGTCACA,-0.128
9,GAAAGCCA,-0.226
10,ATGCGTGC,-0.194
11,GAATGTCC,0.211
12,ATGAAGAC,-0.048
13,TAGCTGGA,-0.222
14,AACTTTAA,0.00296
15,AAGGATCA,-0.18
16,GAGCGTGA,0.0626
17,CTCGTGGA,-0.199
18,ATAAGGCA,-0.131
19,CGTACGCC,0.138
20,GGGAGCTA,-0.0945
21,ATGAGTTG,-0.0957
22,TATGTAGA,-0.102
23,AGATGAGC,-0.224
24,CACGAGGA,-0.111
25,CCGAGCTA,0.0922

row,Sequence,PBM E-score
1,CATGCAAG,-0.0987
2,ATGGTGGC,-0.185
3,ATATTTAC,0.0874
4,GAGTCATA,-0.0136
5,GGAACGGA,0.321
6,AAAAGTGA,-0.0979
7,AGTAACAA,-0.0286
8,CGCCTACA,-0.0416
9,CGCCTAGC,0.107
10,GCACGCAA,0.0357
11,GGAATATA,0.129
12,CTACAGAG,-0.114
13,ATCGTGAG,0.0538
14,CGCGTCAA,-0.0197
15,CGAATCTC,0.0844
16,AGCCAAAC,-0.0903
17,ATACTAAA,-0.159
18,CAATCGGG,0.188
19,CTGCGTCC,-0.185
20,GGCTTTAA,0.307
21,GAGATCTC,-0.0498
22,ATCCTGTA,-0.152
23,GGCATTAC,0.249
24,TAGAGACA,-0.283
25,AGCAAATG,-0.151

row,Sequence,PBM E-score
1,CAGTCCGC,0.252
2,CACCGTGG,0.197
3,GGCTGCGA,-0.15
4,AGCTAAAG,-0.106
5,CATCAAAG,-0.153
6,ACTACGTG,-0.0845
7,AAACCTTA,-0.214
8,AAACTATA,0.0686
9,ACGACGCC,0.085
10,ATGCGAGA,-0.175
11,CCGCTGCC,0.168
12,CAAATACC,0.263
13,CGGCGGGC,0.361
14,GGTAGTTA,0.118
15,ACGCTGGG,0.00412
16,GTGATTCA,-0.0843
17,CGTAATTA,0.0333
18,CAGATCAC,-0.136
19,CGTACGAC,-0.107
20,GGAGTCGA,-0.0605
21,CGATGGAG,0.287
22,ACTGGGAT,-0.274
23,CGGCAGGC,0.051
24,AGGCAAGG,-0.233
25,ACATATAC,-0.0536

row,Sequence,PBM E-score
1,ATGGACGG,0.299
2,AATTGGTA,-0.0105
3,GCTGTCTA,-0.0882
4,CGATTCAG,0.0468
5,CCATTAGC,-0.0464
6,CAAGGTCG,-0.0186
7,AAGAGTCT,-0.162
8,CACTGAAG,0.0242
9,CGGGCCTC,0.108
10,CGAGTTAA,-0.173
11,AAAACACC,0.353
12,CTTCAGCC,-0.239
13,ACGTAGCG,0.0411
14,ACGACAAA,-0.176
15,AGCAGGCA,-0.141
16,TACCACAA,-0.186
17,TCCTAACA,-0.218
18,AGTCGATC,0.0234
19,ACGCCAGC,-0.181
20,TAGCCTCA,-0.228
21,GGCGACTA,0.0909
22,CTCAATCC,-0.0653
